Source: ChEMBL document CHEMBL4888484, “Replenishing the malaria drug discovery pipeline: Screening and hit evaluation of the MMV Hit Generation Library 1 (HGL1) against asexual blood stage Plasmodium falciparum ,using a nano luciferase reporter read-out” (2022)
In all, about 150,000 compounds went through this assay and about 540 (0.36%) showed an effect of 50% or more. The list shows a part of the results.

tested on: Plasmodium falciparum; assay: Primary screen in NF54 nanoGlo assay, in single point, at 2uM, 72h; a lower Z score goes with more inhibition; type: functional, Erythrocyte; conditions: timepoint 72 hour

Structure (SMILES)	% Inhibition	Z score
CCCCNC(=O)c1ccc(CN2C(=O)CCn3nccc32)cc1	18%	-2.08
CCc1nn(C)cc1NC1CCCC1NC(=O)OC(C)(C)C (stereo not given)	8%	-1.08
CCOCCCNC(=O)c1nnn(-c2ccc3ncccc3c2)c1C	-12%	1.67
CC(C)CCNC(=O)c1nn(Cc2ccc(F)cc2)c2c1COCC2	-22%	2.78
COC1CCCC1NC(=O)c1cncnc1-c1ccccc1 (stereo not given)	-19%	1.9
CCO[C@H]1COCC[C@@H]1NC(=O)c1c[nH]c(=O)c(Cl)c1	-3%	0.5
CC(C)Cn1cncc1Cn1cc([C@H]2CCOC2)nn1	5%	-0.97
C[C@H]1CCCCN1CC(=O)Nc1ccc2c(c1)OCO2	-3%	0.63
COc1ccc(-c2cc(C(=O)N3CCCCCCC3)[nH]n2)cc1	-18%	2.29
Cc1cnn(CC(=O)N2CCCN(C(=O)Cc3cccc(F)c3)CC2)c1	-7%	0.93
CN(C)c1ccc(-c2cnc3cccnn23)cn1	-7%	1.25
O=C(NC1CCN(C2CC2)CC1)c1cc2ccccc2[nH]1	-7%	1.05
O=S(=O)(Cc1cccc(NCc2cnc3ccccn23)c1)C1CCCCC1	-5%	0.71
CCC1CC(NS(=O)(=O)C2(C)CC2)CCO1 (stereo not given)	8%	-0.92
Cc1cc(C(=O)Nc2nccn2CC(C)C)oc1Br	-5%	0.91
CC(C)(C)C(=O)NCC(c1ccco1)c1ccco1	-13%	1.93
CCOCCNC(=O)c1coc(COc2ccc3c(c2)OCO3)n1	-10%	0.95
O=C(Cn1ccc2ccccc2c1=O)N1CCOC2CCCCC21 (stereo not given)	-5%	0.72
O=C(C[C@H]1C(=O)Nc2ccccc2N1C(=O)c1ccccc1)Nc1ccccc1Cl	27%	-3.06
Cn1cc(-c2cc3n(n2)CCC(=O)N3CC(=O)N2CCN(c3ccccn3)CC2)c2ccccc21	-4%	0.7
Cc1ccccc1[C@@H](C)CC(=O)NCCn1cnnc1C	-1%	0.07
Fc1ccc(-c2ccco2)cc1NCc1cn2cccnc2n1	-26%	3.72

Structure (SMILES)	% Inhibition	Z score
Cc1cc(C#N)c(N(C)CCCCN2CCOCC2)nc1C	-13%	1.42
CCc1nc(C)cc(NCCc2ccnn2C)n1	-13%	2.16
CCc1ccccc1NC(=O)CN1CCN(C(=O)c2ccc3cc(OC)ccc3c2)CC1	-49%	5.75
OC[C@@]1(CCc2ccccc2)CCCN(Cc2c[nH]nc2-c2cccc(F)c2)C1	7%	-0.86
CC(C)(C)C(=O)NCC(=O)Nc1c(O)cccc1F	0%	-0.01
O[C@H](COCCc1c[nH]nn1)Cc1cccc(Cl)c1	1%	-0.14
CCCc1occc1C(=O)NCC(=O)N1CCC[C@H]1C(=O)NC	-11%	1.48
COc1cccc2ncn([C@H]3COC[C@@H]3N3CCCC3)c(=O)c12	-15%	1.36
O=C(CCc1cn2ccccc2n1)N1CCC[C@@]2(CCCO2)CC1	-7%	1.36
C[C@H](NC(=O)Nc1cccnn1)c1nnnn1C1CC1	-2%	0.27
Cc1nc(C)c(CNC(C)CC(O)c2cccs2)s1 (stereo not given)	-4%	0.48
CCC(C)N(C(=O)COc1ccc(Cl)cc1C)C(C)CC (stereo not given)	5%	-0.58
COc1cccc2c1Oc1ccccc1N=C2N1CCN(C(=O)C(C)C)CC1	-4%	0.5
CCNC(=O)NC1CCC(Nc2nc(C3CCCCC3)nc3c2c(C)nn3-c2ccccc2)CC1 (stereo not given)	-12%	1.77
CCn1ccnc1CN(C)C(=O)Nc1cc(C)ccc1OC	2%	-0.21
CCN(CC(=O)N1CCCCCC1)C(=O)c1cc(Cl)cc2cccnc12	-9%	1.04
Cc1cc(CN2CCN(C(=O)Cn3nc(C)cc3C)CC2)on1	-3%	0.56
CO[C@H]1C[C@@H](O)C12CCN(c1cc(N)nc(N3CCOCC3)n1)CC2	-17%	2.79
CC1CCCCC1NC(=O)C1CCOCC1 (stereo not given)	3%	-0.43
CC(=O)Nc1ccc(Oc2ccc(-c3noc(-c4ccc(C)c(NC(C)=O)c4)n3)cc2)cc1	-14%	1.64
COCCC[C@]1(C(=O)O)CCCN(C(=O)CCC(F)(F)F)C1	-16%	2.74
Cc1ccc(NC(=O)C2[C@@H]3C=C[C@]4(O3)C(C(=O)NC3CCCCC3)N(CCN3CCCCCC3)C(=O)[C@H]24)cc1Cl (stereo not given in full)	8%	-1.31

Structure (SMILES)	% Inhibition	Z score
O=C(c1scc2c1OCCO2)N1CCNC(=O)C12CCCC2	4%	-0.81
COc1ccc(C(=O)N2CC(=O)c3ccccc3S2(=O)=O)cc1OC	-44%	5.17
COCCn1cnnc1CNC(=O)[C@@]1(C)CC[C@@H](C(=O)N(C)C)C1(C)C	10%	-1.91
CC(C)Cn1cncc1CN1CCO[C@H](c2ccc(Cl)cc2)C1	-13%	1.83
O=C1CCC(=O)N1C1CC2CCC(C1)N2S(=O)(=O)c1cccnc1 (stereo not given)	-1%	0.06
Cn1c(CN(CCC2CCCCC2)CC(N)=O)cc(=O)n(C)c1=O	-5%	0.59
Cc1ccc(Nc2nc(C)c(NC(=O)c3ccc(Cl)cc3)c(Nc3ccc(C)cc3)n2)cc1	-15%	2.91
COCCN1C(=O)c2ccccc2C(C(=O)N2CCN(c3ccccn3)CC2)C1c1ccc(F)cc1 (stereo not given)	15%	-2.27
Cc1cnc(C(NC2CCN(CC(F)(F)F)C2)C2CC2)s1 (stereo not given)	-10%	1.54
COc1ccccc1CNC(=O)c1ccccc1N1C(=O)[C@@H]2Cc3c([nH]c4ccccc34)C(c3ccccc3)N2C1=O (stereo not given in full)	-5%	0.41
Cc1cccc(OC2(C(=O)O)CCN(c3ncnc4[nH]ccc34)CC2)c1	6%	-0.81
Cc1cc(NC(=O)NCCc2cscn2)n(Cc2ccccn2)n1	-1%	0.1
CCCn1c(C)nnc1CN[C@@H](C)c1cccc(F)c1F	-4%	0.41
CS(=O)(=O)Cc1ccc(N2CC(c3ccncc3)C2)nc1	-8%	1.09
O=C(c1ccc2nccnc2c1)N1CC2CC1CS2(=O)=O (stereo not given)	-6%	0.69
CC(C)(C1=CCCCC1)c1noc(C[C@H]2CCC(=O)NC2)n1	-12%	1.65
Oc1ccc(Cc2nc(-c3ncc[nH]3)no2)cc1	-6%	0.72
COc1ccc(S(=O)(=O)N2CC(NC3CCC4CN(Cc5ccccc5)CC43)C2)cc1 (stereo not given)	44%	-3.93
Cc1cccnc1C[C@H](C)Nc1nc2c(s1)c(C)nn2C	-13%	1.65
CN1CCCC2(CCN(C(=O)CCc3nc4ccccc4s3)CC2)[C@H]1C(N)=O	-7%	0.81
O=C1CCN(C(=O)Cc2ccc(Br)cc2)CCN1	-9%	1.86
CCc1cnc(C)nc1N1CCC(c2nnc(Cn3cncn3)n2C)CC1	-11%	1.45

Structure (SMILES)	% Inhibition	Z score
CC(C)N1C(=O)CC(C(=O)NOC2CCCCO2)C1c1ccc(Cl)c(F)c1 (stereo not given)	-6%	0.66
O=C(Nc1ccc(-c2ccn[nH]2)cc1)N1CCN[C@@H]2CS(=O)(=O)C[C@@H]21	-5%	0.61
Brc1ccc(-c2oc(-c3ccccc3)cc2-c2nc3ccccc3[nH]2)cc1	4%	-0.84
CC(C)Cn1[nH]c(CC(=O)N[C@]2(C)C[C@H](C)CC(C)(C)C2)cc1=O	-8%	1.06
COC1(C)CC(NS(=O)(=O)N(C)C)C1(C)C (stereo not given)	-3%	0.53
Cc1ccc(NC(=O)c2ccc3c4c(cccc24)CC3)nc1	-8%	1.07
CCN(CC)c1ncccc1CNC(=O)c1cccc(Cl)c1	4%	-0.76
O=C(c1ccc(Cl)cc1)C1CN(c2ccccc2)CC1c1ccccc1F (stereo not given)	-4%	0.71
COc1ccc(C(=O)NC[C@H]2OC[C@@H](NCc3ccc(F)cc3)[C@@H]2O)cc1	-8%	1.21
CCc1nc(CC#N)nc(N2CCN(C(=O)c3ccco3)CC2)c1Cc1cccc(C)c1	-20%	1.92
CCCCn1nc(C2CCCC2)nc1C[C@H]1CN(C(C)C)CCO1	5%	-0.81
C=CCN1CCC[C@H]1C(=O)N(C)CC(C)(C)CO	-18%	1.67
OC(COc1ccc(C2C=CCC2)cc1)CN1CCCCC1 (stereo not given)	15%	-1.91
CNC(=O)c1ccc(NCc2cccc(C)c2Br)nn1	5%	-0.91
CCN(Cc1nc(C)no1)C(=O)Nc1ccc(Cl)cc1C(F)(F)F	-2%	0.32
O=C(NCc1cn(-c2ccncc2)nn1)c1ccc(Oc2nccs2)cc1	-2%	0.45
COc1ccc(-n2nc(C)c3c2NC(=O)C[C@@H]3c2ccc(O)cc2)nn1	-4%	0.53
Cn1cncc1Cc1noc(-c2ccco2)n1	31%	-3.46
CCN(CC)CCN(CCC(F)(F)F)Cc1nc(-c2ccco2)no1	1%	-0.16
